# This is one part of the list.
# B1: HMGB1 (Homo sapiens), P09429 (protein)
# chain: MGKGDPKKPRGKMSSYAFFVQTCREEHKKKHPDASVNFSEFSKKCSERWKTMSAKEKGKFEDMAKADKARYEREMKTYIPPKGETKKKFKDPNAPKRPPSAFFLFCSEYRPKIKGEHPGLSIGDVAKKLGEMWNNTAADDKQPYEKKAAKLKEKYEKDIAAYRAKGKPDAAKKGVVKAEKSKKKKEEEEDEEDEEDEEEEEDEEDEDEEEDDDDE
# Assays:
# Assay in all cases: glycan array binding signal (z-score within array); higher = stronger binding
# Conditions in all cases: glycan notation: IUPAC condensed, linker removed
# [1] = molecular target: Man(a1-3)[Man(a1-6)]Man(b1-4)GlcNAc(b1-4)GlcNAc
# Summary of the method: (§1)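 Arrays were curated from the Consortium for Functional Glycomics database, 3228 in total, and kept only where the protein sequence was available. Binding is expressed as a within-array Z-score. This score was averaged across arrays of the same protein sequence at different concentrations or buffers and across linkers, and negative values can be read as non-binding.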
# Man(b1-4)GlcNAc = molecular target: Man(b1-4)GlcNAc
# Summary of the method: as §1
# Neu5Ac(a2-3)Gal = molecular target: Neu5Ac(a2-3)Gal
# Summary of the method: as §1
# [2] = molecular target: Neu5Ac(a2-3)Gal(b1-3)GalNAc
# Summary of the method: as §1
# [3] = molecular target: Neu5Ac(a2-3)Gal(b1-3)GalNAc(b1-3)Gal(a1-4)Gal(b1-4)Glc
# Summary of the method: as §1
# [4] = molecular target: Neu5Ac(a2-3)Gal(b1-3)GalNAc(b1-4)[Neu5Ac(a2-3)]Gal(b1-4)Glc
# Summary of the method: as §1
# [5] = molecular target: Neu5Ac(a2-3)Gal(b1-3)GalNAc6S
# Summary of the method: as §1
# [6] = molecular target: Neu5Ac(a2-3)Gal(b1-3)GlcNAc
# Summary of the method: as §1
# [7] = molecular target: Neu5Ac(a2-3)Gal(b1-3)GlcNAc(b1-3)Gal(b1-4)GlcNAc
# Summary of the method: as §1
# [8] = molecular target: Neu5Ac(a2-3)Gal(b1-3)GlcNAc6S
# Summary of the method: as §1
# [9] = molecular target: Neu5Ac(a2-3)Gal(b1-3)[Fuc(a1-4)]GlcNAc
# Summary of the method: as §1
# [10] = molecular target: Neu5Ac(a2-3)Gal(b1-3)[Fuc(a1-4)]GlcNAc(b1-3)Gal(b1-4)[Fuc(a1-3)]GlcNAc
# Summary of the method: as §1
# [11] = molecular target: Neu5Ac(a2-3)Gal(b1-3)[Neu5Ac(a2-3)Gal(b1-4)]GlcNAc
# Summary of the method: as §1
# [12] = molecular target: Neu5Ac(a2-3)Gal(b1-3)[Neu5Ac(a2-6)]GalNAc
# Summary of the method: as §1
# Neu5Ac(a2-3)Gal(b1-4)Glc = molecular target: Neu5Ac(a2-3)Gal(b1-4)Glc
# Summary of the method: as §1
# [13] = molecular target: Neu5Ac(a2-3)Gal(b1-4)GlcNAc
# Summary of the method: as §1
# [14] = molecular target: Neu5Ac(a2-3)Gal(b1-4)GlcNAc(b1-3)Gal(b1-4)GlcNAc
# Summary of the method: as §1
# [15] = molecular target: Neu5Ac(a2-3)Gal(b1-4)GlcNAc(b1-3)Gal(b1-4)GlcNAc(b1-3)Gal(b1-4)GlcNAc
# Summary of the method: as §1
# [16] = molecular target: Neu5Ac(a2-3)Gal(b1-4)GlcNAc(b1-3)Gal(b1-4)[Fuc(a1-3)]GlcNAc
# Summary of the method: as §1
# [17] = molecular target: Neu5Ac(a2-3)Gal(b1-4)GlcNAc6S
# Summary of the method: as §1
# [18] = molecular target: Neu5Ac(a2-3)Gal(b1-4)[Fuc(a1-3)]GlcNAc
# Summary of the method: as §1
# [19] = molecular target: Neu5Ac(a2-3)Gal(b1-4)[Fuc(a1-3)]GlcNAc(b1-3)Gal
# Summary of the method: as §1
# [20] = molecular target: Neu5Ac(a2-3)Gal(b1-4)[Fuc(a1-3)]GlcNAc(b1-3)Gal(b1-4)GlcNAc
# Summary of the method: as §1
# [21] = molecular target: Neu5Ac(a2-3)Gal(b1-4)[Fuc(a1-3)]GlcNAc(b1-3)Gal(b1-4)[Fuc(a1-3)]GlcNAc(b1-3)Gal(b1-4)[Fuc(a1-3)]GlcNAc
# Summary of the method: as §1
# [22] = molecular target: Neu5Ac(a2-3)Gal(b1-4)[Fuc(a1-3)]GlcNAc6S
# Summary of the method: as §1
# [23] = molecular target: Neu5Ac(a2-3)Gal6S(b1-4)GlcNAc
# Summary of the method: as §1
# [24] = molecular target: Neu5Ac(a2-3)Gal6S(b1-4)[Fuc(a1-3)]GlcNAc
# Summary of the method: as §1
# Neu5Ac(a2-3)GalNAc = molecular target: Neu5Ac(a2-3)GalNAc
# Summary of the method: as §1
# [25] = molecular target: Neu5Ac(a2-3)GalNAc(b1-4)GlcNAc
# Summary of the method: as §1
# [26] = molecular target: Neu5Ac(a2-3)[GalNAc(b1-4)]Gal(b1-4)Glc
# Summary of the method: as §1
# [27] = molecular target: Neu5Ac(a2-3)[GalNAc(b1-4)]Gal(b1-4)GlcNAc
# Summary of the method: as §1
# [28] = molecular target: Neu5Ac(a2-3)[Neu5Ac(a2-6)]GalNAc
# Summary of the method: as §1
# [29] = molecular target: Neu5Ac(a2-6)Gal(b1-4)GlcNAc
# Summary of the method: as §1
# [30] = molecular target: Neu5Ac(a2-6)Gal(b1-4)GlcNAc(b1-2)Man(a1-3)[Neu5Ac(a2-6)Gal(b1-4)GlcNAc(b1-2)Man(a1-6)]Man(b1-4)GlcNAc(b1-4)GlcNAc
# Summary of the method: as §1
# [31] = molecular target: Neu5Ac(a2-6)Gal(b1-4)GlcNAc(b1-3)Gal(b1-4)GlcNAc
# Summary of the method: as §1
# [32] = molecular target: Neu5Ac(a2-6)Gal(b1-4)GlcNAc(b1-3)Gal(b1-4)[Fuc(a1-3)]GlcNAc(b1-3)Gal(b1-4)[Fuc(a1-3)]GlcNAc
# Summary of the method: as §1
# [33] = molecular target: Neu5Ac(a2-6)Gal(b1-4)GlcNAc6S
# Summary of the method: as §1
# Neu5Ac(a2-6)GalNAc = molecular target: Neu5Ac(a2-6)GalNAc
# Summary of the method: as §1
# [34] = molecular target: Neu5Ac(a2-6)GalNAc(b1-4)GlcNAc
# Summary of the method: as §1
# Neu5Ac(a2-8)Neu5Ac = molecular target: Neu5Ac(a2-8)Neu5Ac
# Summary of the method: as §1
# [35] = molecular target: Neu5Ac(a2-8)Neu5Ac(a2-3)Gal(b1-4)Glc
# Summary of the method: as §1
# [36] = molecular target: Neu5Ac(a2-8)Neu5Ac(a2-3)[GalNAc(b1-4)]Gal(b1-4)Glc
# Summary of the method: as §1
# [37] = molecular target: Neu5Ac(a2-8)Neu5Ac(a2-8)Neu5Ac
# Summary of the method: as §1
# [38] = molecular target: Neu5Ac(a2-8)Neu5Ac(a2-8)Neu5Ac(a2-3)Gal(b1-4)Glc
# Summary of the method: as §1
# [39] = molecular target: Neu5Ac(a2-8)Neu5Ac(a2-8)Neu5Ac(a2-3)[GalNAc(b1-4)]Gal(b1-4)Glc
# Summary of the method: as §1
binder,measurement,setting,value
B1,glycan array binding signal (z-score),[1],-0.366
same,glycan array binding signal (z-score),Man(b1-4)GlcNAc,0.327
same,glycan array binding signal (z-score),Neu5Ac(a2-3)Gal,-0.25
same,glycan array binding signal (z-score),[2],-0.434
same,glycan array binding signal (z-score),[3],-0.361
same,glycan array binding signal (z-score),[4],0.568
same,glycan array binding signal (z-score),[5],0.193
same,glycan array binding signal (z-score),[6],-0.125
same,glycan array binding signal (z-score),[7],-0.201
same,glycan array binding signal (z-score),[8],0.393
same,glycan array binding signal (z-score),[9],-0.112
same,glycan array binding signal (z-score),[10],0.178
same,glycan array binding signal (z-score),[11],-0.299
same,glycan array binding signal (z-score),[12],-0.19
same,glycan array binding signal (z-score),Neu5Ac(a2-3)Gal(b1-4)Glc,-0.047
same,glycan array binding signal (z-score),[13],-0.27
same,glycan array binding signal (z-score),[14],0.045
same,glycan array binding signal (z-score),[15],-0.45
same,glycan array binding signal (z-score),[16],0.047
same,glycan array binding signal (z-score),[17],1.05
same,glycan array binding signal (z-score),[18],-0.359
same,glycan array binding signal (z-score),[19],-0.352
same,glycan array binding signal (z-score),[20],-0.125
same,glycan array binding signal (z-score),[21],-0.332
same,glycan array binding signal (z-score),[22],0.28
same,glycan array binding signal (z-score),[23],0.25
same,glycan array binding signal (z-score),[24],0.4
same,glycan array binding signal (z-score),Neu5Ac(a2-3)GalNAc,-0.289
same,glycan array binding signal (z-score),[25],-0.303
same,glycan array binding signal (z-score),[26],-0.407
same,glycan array binding signal (z-score),[27],-0.285
same,glycan array binding signal (z-score),[28],-0.145
same,glycan array binding signal (z-score),[29],-0.33
same,glycan array binding signal (z-score),[30],-0.425
same,glycan array binding signal (z-score),[31],-0.378
same,glycan array binding signal (z-score),[32],-0.308
same,glycan array binding signal (z-score),[33],0.628
same,glycan array binding signal (z-score),Neu5Ac(a2-6)GalNAc,-0.009
same,glycan array binding signal (z-score),[34],0.028
same,glycan array binding signal (z-score),Neu5Ac(a2-8)Neu5Ac,0.031
same,glycan array binding signal (z-score),[35],-0.239
same,glycan array binding signal (z-score),[36],-0.141
same,glycan array binding signal (z-score),[37],0.005
same,glycan array binding signal (z-score),[38],-0.297
same,glycan array binding signal (z-score),[39],-0.096
